Values joined by “and” are separate entries in the source; they are usually repeats but may differ in a detail not shown here. Equal entries are not always repeated. About 17,000 (4.4%) of roughly 390,000 compounds were called active. Inconclusive means that the source gave no clear call. Such entries were picked first, then a sample of the others. Calls follow the shape of the dose curve; as a rule, active = well fitted inhibition curve with a large enough effect; inconclusive = small, poorly fitted or top-dose-only effect; inactive = no such curve, though single readings can be large or run the other way. Potencies beside an inconclusive call are fits to weak or partial responses and may not hold up.
biological target: Lysine-specific demethylase 4A (Homo sapiens) (UniProt O75164); assay: qHTS Assay for Inhibitors of JMJD2A-Tudor Domain; conditions: AlphaScreen JMJD2A-Tudor / H3K4me3 peptide binding; activity change, negative = inhibition: at 114 µM (top of the series); also: nearly all actives have a fitted effect of over 50% in size
Sequence of UniProt O75164 (O75164 whole entry, looked up, the tested form may be a part): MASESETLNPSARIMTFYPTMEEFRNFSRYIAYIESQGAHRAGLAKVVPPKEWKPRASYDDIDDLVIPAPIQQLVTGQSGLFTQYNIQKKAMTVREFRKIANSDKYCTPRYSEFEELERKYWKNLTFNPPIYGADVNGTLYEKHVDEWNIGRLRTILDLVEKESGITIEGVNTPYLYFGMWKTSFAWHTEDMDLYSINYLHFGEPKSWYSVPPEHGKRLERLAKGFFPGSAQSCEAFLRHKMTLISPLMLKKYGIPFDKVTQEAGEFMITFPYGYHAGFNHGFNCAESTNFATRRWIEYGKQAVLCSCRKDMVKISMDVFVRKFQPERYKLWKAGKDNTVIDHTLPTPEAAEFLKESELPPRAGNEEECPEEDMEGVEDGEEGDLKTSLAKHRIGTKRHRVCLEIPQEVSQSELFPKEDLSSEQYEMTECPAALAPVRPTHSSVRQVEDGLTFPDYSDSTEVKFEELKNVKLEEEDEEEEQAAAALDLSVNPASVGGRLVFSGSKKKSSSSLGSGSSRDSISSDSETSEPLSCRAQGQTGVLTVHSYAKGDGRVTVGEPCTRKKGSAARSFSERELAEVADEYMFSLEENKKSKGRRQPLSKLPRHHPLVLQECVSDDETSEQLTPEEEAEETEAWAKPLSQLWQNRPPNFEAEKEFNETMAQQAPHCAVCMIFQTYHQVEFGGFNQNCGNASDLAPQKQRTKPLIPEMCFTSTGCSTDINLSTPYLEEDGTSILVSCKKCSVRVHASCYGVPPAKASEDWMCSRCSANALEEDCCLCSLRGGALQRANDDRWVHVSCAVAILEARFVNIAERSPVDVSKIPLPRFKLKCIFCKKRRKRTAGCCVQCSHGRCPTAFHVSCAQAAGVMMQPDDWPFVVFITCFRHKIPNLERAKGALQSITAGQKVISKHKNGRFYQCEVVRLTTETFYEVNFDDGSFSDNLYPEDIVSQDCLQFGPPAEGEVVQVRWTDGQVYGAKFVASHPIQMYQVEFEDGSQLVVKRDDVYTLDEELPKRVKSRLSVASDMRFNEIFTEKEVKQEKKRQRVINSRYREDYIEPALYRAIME
% is scaled to controls: 0 for no effect and ±100 for the full control effect; potency is read from the fitted curve at half-maximal effect; tags tell the direction and shape of the fitted curve.

Row | Compound | Potency | activity change, negative = inhibition
1 | Oc1ccc(N2CCN(c3ncnc4sc(-c5ccccc5)cc34)CC2)cc1 | active: 15.8 µM | –
2 | O=C1c2ccccc2C(=O)c2c(O)c(O)cc(O)c21 | active: 22.4 µM | –
3 | COC(=O)Cc1c(C)c2cc3c(c(C)c2oc1=O)OCN(CCc1ccc(OC)cc1)C3 | – | inactive: -5.9%
4 | O=C(NCC(c1cccs1)N1CCc2ccccc21)c1ccccc1 (centres undefined) | inconclusive: 15.8 µM [inhibitor, partial curve] | –
5 | O=C(CSc1nc(-c2ccc(F)cc2)cs1)NC(=O)NCc1ccco1 | inconclusive: 56.2 µM [inhibitor, partial curve] | –
6 | CCN1/C(=C/c2ccc3cc(C)ccc3[n+]2CC)Sc2cc(C)ccc21 | inconclusive: 20 µM [inhibitor, full curve] | –
7 | COc1ccc(OC)c(NC(=S)N(CCc2c(C)[nH]c3ccccc23)Cc2cccs2)c1 | inconclusive: 11.2 µM [inhibitor, full curve] | –
8 | C=CCn1c(CCNC(=O)c2cccs2)n[nH]c1=S | inconclusive: 6.31 µM [inhibitor, full curve, poor fit] | –
9 | O=C(Nc1cccc(S(=O)(=O)NC2=NCCC2)c1)c1c(F)cccc1Cl | – | inactive: -6.43%
10 | COc1ccc(C2c3[nH]c4ccc(OC)cc4c3CCN2C(=O)Nc2ccccc2)cc1 (centres undefined) | inconclusive: 35.5 µM [inhibitor, partial curve] | –
11 | O=C1C(=Cc2ccco2)CCC1=Cc1ccco1 | active: 3.16 µM | –
12 | CCN1C(=O)C(CC(=O)Nc2cc(C)ccc2C)SC1=Nc1ccc(S(N)(=O)=O)cc1 (centres undefined) | inconclusive: 100 µM [inhibitor, single point] | –
13 | Cc1ccc(C)c(-n2c(-c3csc(C)c3)n[nH]c2=S)c1 | active: 22.4 µM | –
14 | O=c1[nH]ncc(N2CCN(C(c3ccccc3)c3ccccc3)CC2)c1Cl | inconclusive: 70.8 µM [inhibitor, single point] | –
15 | O=C(NCc1ccc(Cl)cc1)c1cccc(S(=O)(=O)N2CCCC2)c1 | – | inactive: -8.44%
16 | Cn1c(=O)c2[nH]c(N/N=C(/C#N)C(N)=O)nc2n(C)c1=O | – | inactive: -19.3%
17 | Cc1ccc(-c2nc3ccccn3c2Nc2ccc3c(c2)OCO3)o1 | active: 50.1 µM | –
18 | O=C(/C=C/c1cn(CC(O)CN2CCCCCC2)c2ccccc12)c1ccc(Br)cc1 (centres undefined) | inconclusive: 56.2 µM [inhibitor, partial curve] | –
19 | O=C1NC(=S)SC1=C1CCCC1 | inconclusive: 89.1 µM [inhibitor, single point] | –
20 | N=C(N)SCc1nc2ccccc2c(=O)n1-c1ccccc1 | inconclusive: 70.8 µM [inhibitor, partial curve] and inconclusive: 79.4 µM [inhibitor, single point] | –
21 | CCOC(=O)c1cnc2ccc(OC)cc2c1Nc1ccc2c(c1)OCCO2 | inconclusive: 50.1 µM [inhibitor, partial curve] | –
22 | O=C(Nc1nc(=O)c2ccccc2s1)c1ccc(Cl)cc1 | – | inactive: -17.1% [at 11.4 µM]

Row | Compound | Potency | activity change, negative = inhibition
23 | CCc1ccc(NC(=O)CCNS(=O)(=O)c2ccc3c(c2)CCCC(=O)N3)cc1 | – | inactive: -18.8%
24 | Cc1cc(Cl)c(C(=O)Nc2cccc(C(F)(F)F)c2)c(C)n1 | inconclusive: 89.1 µM [inhibitor, partial curve] | –
25 | COc1ccc(OCc2cc(C(=O)N(C)CCC3CCOCC3)no2)c(Cl)c1 | inconclusive: 17.8 µM [inhibitor, partial curve, poor fit] | –
26 | O=C(Nc1ccc(S(=O)(=O)Nc2nccs2)cc1)c1cc(-c2ccccc2)nc2ccccc12 | active: 31.6 µM | –
27 | CCOC(=O)c1scc(-c2ccccc2)c1S(=O)(=O)N1CCN(c2ccccc2OC)CC1 | – | inactive: -18%
28 | Cn1ncc(N=Cc2c(O)ccc3ccccc23)c1C(=O)Nc1cccc(Cl)c1 | inconclusive: 39.8 µM [inhibitor, partial curve] | –
29 | COc1ccc(C(=O)COC(=O)CCN2C(=O)C3CC=CCC3C2=O)c(OC)c1 (centres undefined) | – | inactive: -11%
30 | NC(=S)N/N=C/c1ccccc1OCCSc1ccc(Cl)cc1 | inconclusive: 39.8 µM [inhibitor, full curve] | –
31 | CCN1CCN(c2ccc(NC(=O)CCc3c(C)nc4c(-c5ccccc5)c(C)nn4c3C)cc2)CC1 | inconclusive: 50.1 µM [inhibitor, partial curve] | –
32 | CCOC(=O)c1ccc(NC(=S)NCCCn2ccnc2)cc1 | – | inactive: -25.5%
33 | COc1ccc(NC(=O)Cn2nc(C(=O)O)c3ccccc3c2=O)cc1Cl | inconclusive: 28.2 µM [inhibitor, single point] | –
34 | COc1ccc(-c2csc(N(CCCN(C)C)C(=O)c3ccc(C(C)(C)C)cc3)n2)cc1 | inconclusive: 17.8 µM [inhibitor, full curve] | –
35 | C=C1c2ccccc2S(=O)(=O)N(Cc2ccccc2)C1COCc1ccccc1 (centres undefined) | – | inactive: 17.7%
36 | COc1cc(CN2CCN(c3ccccc3C)CC2)cc([N+](=O)[O-])c1O | active: 3.98 µM | –
37 | CCCCNc1nc2c(c(=O)n(Cc3ccc(Cl)c(Cl)c3)c(=O)n2C)n1C | inconclusive: 31.6 µM [inhibitor, full curve] | –
38 | CC(Sc1nnc(C2CC2)n1-c1ccccc1)C(=O)N1CCCC1 (centres undefined) | inconclusive: 25.1 µM [inhibitor, partial curve, poor fit] | –
39 | Cc1cccc(N2CCN(c3ncnc4c3c(-c3ccccc3)cn4-c3ccccc3)CC2C)c1 (centres undefined) | inconclusive: 39.8 µM [inhibitor, partial curve, poor fit] | –
40 | O=C(Cc1ccccc1)NCc1n[nH]c(=S)n1-c1ccc(Br)cc1 | inconclusive: 3.16 µM [inhibitor, single point] | –
41 | COc1ccc(CN2CCN(c3ccccc3OC)CC2)c(OC)c1 | active: 20 µM | –
42 | CCOc1ccc(-c2cc(C(=O)N3CCN(c4ccc(C)cc4)C(C)C3)c3ccccc3n2)cc1 (centres undefined) | inconclusive: 39.8 µM [inhibitor, partial curve] | –
43 | N#Cc1c(N(CCO)CCO)nc(N)c2c(N)nc3c(c12)CC(=O)N3Cc1cccs1 | inconclusive: 56.2 µM [inhibitor, partial curve] | –
44 | CCN(CC)CCC(=O)N1c2ccccc2Sc2ccc(Cl)cc21 | – | inactive: -10.8%

Reference: PubChem BioAssay AID504339 (National Center for Advancing Translational Sciences (NCATS), 2011)
